# Laboratory results: publication PMC5241739, “Structure of the Toll/Interleukin-1 Receptor (TIR) Domain of the B-cell Adaptor That Links Phosphoinositide Metabolism with the Negative Regulation of the Toll-like Receptor (TLR) Signalosome*^([image sbox.jpg])” (The Journal of Biological Chemistry, 2016)
# Protein sequences, listed by entry. Tags and fused reporters are not part of them. Lines headed by an entry give the natural chain unless they say otherwise; changes in a name come on top. Residues count along the entry.
# UniProt Q99836: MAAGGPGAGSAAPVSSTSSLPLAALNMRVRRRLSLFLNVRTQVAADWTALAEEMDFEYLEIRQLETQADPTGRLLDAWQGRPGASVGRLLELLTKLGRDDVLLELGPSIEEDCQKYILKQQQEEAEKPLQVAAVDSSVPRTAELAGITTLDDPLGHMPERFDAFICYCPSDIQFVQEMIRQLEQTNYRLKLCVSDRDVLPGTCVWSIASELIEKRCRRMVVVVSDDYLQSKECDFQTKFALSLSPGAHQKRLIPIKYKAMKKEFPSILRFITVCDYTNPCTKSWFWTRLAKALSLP
# UniProt P58753: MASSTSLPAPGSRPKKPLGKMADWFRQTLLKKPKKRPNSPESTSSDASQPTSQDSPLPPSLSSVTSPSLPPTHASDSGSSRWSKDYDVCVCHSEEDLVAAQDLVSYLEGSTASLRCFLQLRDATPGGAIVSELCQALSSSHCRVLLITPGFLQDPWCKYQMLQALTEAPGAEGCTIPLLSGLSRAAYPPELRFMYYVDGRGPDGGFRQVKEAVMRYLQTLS
# UniProt O00206, residues 671-820: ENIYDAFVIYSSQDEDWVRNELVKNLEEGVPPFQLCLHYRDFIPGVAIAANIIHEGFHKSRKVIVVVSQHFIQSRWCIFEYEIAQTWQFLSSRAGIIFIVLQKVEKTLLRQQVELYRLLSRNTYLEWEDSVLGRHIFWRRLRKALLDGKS
# UniProt Q86XR7: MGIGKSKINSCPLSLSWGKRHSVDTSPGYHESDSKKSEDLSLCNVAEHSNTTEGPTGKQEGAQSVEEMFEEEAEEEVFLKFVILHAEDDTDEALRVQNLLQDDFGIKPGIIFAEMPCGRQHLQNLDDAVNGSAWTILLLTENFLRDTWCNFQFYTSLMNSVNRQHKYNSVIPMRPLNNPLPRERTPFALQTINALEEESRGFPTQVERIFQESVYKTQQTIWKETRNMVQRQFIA
# UniProt O60603, residues 636-784: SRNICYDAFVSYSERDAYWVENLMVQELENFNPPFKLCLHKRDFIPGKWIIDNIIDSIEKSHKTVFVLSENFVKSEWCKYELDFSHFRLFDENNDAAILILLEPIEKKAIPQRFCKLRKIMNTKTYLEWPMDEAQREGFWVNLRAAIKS
# Numbering of substitutions follows the chain as printed. In names and notes the source's numbering stands. Read-outs that look alike come from different tables or passages of the source. These are yes or no findings as the source states them, for the method shown. For part of these data: Binding seen in cells or lysates may run through a third protein. Some entries that bind do so weakly or less than the wild type. For part of these data: Where a sequence is shown, tags or fusion partners need not be part of it.
# B1: human PLCγ2 (PLCγ2-V5) (enzyme, UniProt P16885 1-1265)
# chain: MSTTVNVDSLAEYEKSQIKRALELGTVMTVFSFRKSTPERRTVQVIMETRQVAWSKTADKIEGFLDIMEIKEIRPGKNSKDFERAKAVRQKEDCCFTILYGTQFVLSTLSLAADSKEDAVNWLSGLKILHQEAMNASTPTIIESWLRKQIYSVDQTRRNSISLRELKTILPLINFKVSSAKFLKDKFVEIGAHKDELSFEQFHLFYKKLMFEQQKSILDEFKKDSSVFILGNTDRPDASAVYLHDFQRFLIHEQQEHWAQDLNKVRERMTKFIDDTMRETAEPFLFVDEFLTYLFSRENSIWDEKYDAVDMQDMNNPLSHYWISSSHNTYLTGDQLRSESSPEAYIRCLRMGCRCIELDCWDGPDGKPVIYHGWTRTTKIKFDDVVQAIKDHAFVTSSFPVILSIEEHCSVEQQRHMAKAFKEVFGDLLLTKPTEASADQLPSPSQLREKIIIKHKKLGPRGDVDVNMEDKKDEHKQQGELYMWDSIDQKWTRHYCAIADAKLSFSDDIEQTMEEEVPQDIPPTELHFGEKWFHKKVEKRTSAEKLLQEYCMETGGKDGTFLVRESETFPNDYTLSFWRSGRVQHCRIRSTMEGGTLKYYLTDNLTFSSIYALIQHYRETHLRCAEFELRLTDPVPNPNPHESKPWYYDSLSRGEAEDMLMRIPRDGAFLIRKREGSDSYAITFRARGKVKHCRINRDGRHFVLGTSAYFESLVELVSYYEKHSLYRKMRLRYPVTPELLERYNMERDINSLYDVSRMYVDPSEINPSMPQRTVKALYDYKAKRSDELSFCRGALIHNVSKEPGGWWKGDYGTRIQQYFPSNYVEDISTADFEELEKQIIEDNPLGSLCRGILDLNTYNVVKAPQGKNQKSFVFILEPKQQGDPPVEFATDRVEELFEWFQSIREITWKIDTKENNMKYWEKNQSIAIELSDLVVYCKPTSKTKDNLENPDFREIRSFVETKADSIIRQKPVDLLKYNQKGLTRVYPKGQRVDSSNYDPFRLWLCGSQMVALNFQTADKYMQMNHALFSLNGRTGYVLQPESMRTEKYDPMPPESQRKILMTLTVKVLGARHLPKLGRSIACPFVEVEICGAEYDNNKFKTTVVNDNGLSPIWAPTQEKVTFEIYDPNLAFLRFVVYEEDMFSDPNFLAHATYPIKAVKSGFRSVPLKNGYSEDIELASLLVFCEMRPVLESEEELYSSCRQLRRRQEELNNQLFLYDTHQNLRNANRDALVKEFSVNENQLQLYQEKCNKRLREKRVSNSKFYS
# B2: BCAP (wild type, co-immunoprecipitation of supplemental Fig. 3) (protein, UniProt Q6ZUJ8 1-805)
# chain: MAASGVPRGCDILIVYSPDAEEWCQYLQTLFLSSRQVRSQKILTHRLGPEASFSAEDLSLFLSTRCVVVLLSAELVQHFHKPALLPLLQRAFHPPHRVVRLLCGVRDSEEFLDFFPDWAHWQELTCDDEPETYVAAVKKAISEDSGCDSVTDTEPEDEKVVSYSKQQNLPTVTSPGNLMVVQPDRIRCGAETTVYVIVRCKLDDRVATEAEFSPEDSPSVRMEAKVENEYTISVKAPNLSSGNVSLKIYSGDLVVCETVISYYTDMEEIGNLLSNAANPVEFMCQAFKIVPYNTETLDKLLTESLKNNIPASGLHLFGINQLEEEDMMTNQRDEELPTLLHFAAKYGLKNLTALLLTCPGALQAYSVANKHGHYPNTIAEKHGFRDLRQFIDEYVETVDMLKSHIKEELMHGEEADAVYESMAHLSTDLLMKCSLNPGCDEDLYESMAAFVPAATEDLYVEMLQASTSNPIPGDGFSRATKDSMIRKFLEGNSMGMTNLERDQCHLGQEEDVYHTVDDDEAFSVDLASRPPVPVPRPETTAPGAHQLPDNEPYIFKVFAEKSQERPGNFYVSSESIRKGPPVRPWRDRPQSSIYDPFAGMKTPGQRQLITLQEQVKLGIVNVDEAVLHFKEWQLNQKKRSESFRFQQENLKRLRDSITRRQREKQKSGKQTDLEITVPIRHSQHLPAKVEFGVYESGPRKSVIPPRTELRRGDWKTDSTSSTASSTSNRSSTRSLLSVSSGMEGDNEDNEVPEVTRSRSPGPPQVDGTPTMSLERPPRVPPRAASQRPPTRETFHPPPPVPPRGR
# B3: BCAP Pro-49 mutated to aspartic acid (protein, UniProt Q6ZUJ8 1-805)
# chain: B2 chain with P49D
# B4: BCAP Pro-49 mutated to alanine (protein, UniProt Q6ZUJ8 1-805)
# chain: B2 chain with P49A
# B5: BCAP L401A (protein, UniProt Q6ZUJ8 1-805)
# chain: B2 chain with L401A
# B6: Myc-BCAP-FL (protein, UniProt Q6ZUJ8 1-805)
# chain: B2 chain
# B7: N-terminal domain of human BCAP comprising residues 7–142 (domain or fragment, UniProt Q6ZUJ8 7-142)
# chain: PRGCDILIVYSPDAEEWCQYLQTLFLSSRQVRSQKILTHRLGPEASFSAEDLSLFLSTRCVVVLLSAELVQHFHKPALLPLLQRAFHPPHRVVRLLCGVRDSEEFLDFFPDWAHWQELTCDDEPETYVAAVKKAIS
# Legend:
# [1] = target: T1, BCAP-TDA, the first 434 amino acids of human BCAP (human) (UniProt Q6ZUJ8); test: two-hybrid; Matchmaker system; bait GAL4-DBD in AH109 mated with prey GAL4-AD in Y187; growth on SD/−Leu/−Trp/−His/−Ade + Xα-Gal + 5 mM 3-AT
# T1 sequence: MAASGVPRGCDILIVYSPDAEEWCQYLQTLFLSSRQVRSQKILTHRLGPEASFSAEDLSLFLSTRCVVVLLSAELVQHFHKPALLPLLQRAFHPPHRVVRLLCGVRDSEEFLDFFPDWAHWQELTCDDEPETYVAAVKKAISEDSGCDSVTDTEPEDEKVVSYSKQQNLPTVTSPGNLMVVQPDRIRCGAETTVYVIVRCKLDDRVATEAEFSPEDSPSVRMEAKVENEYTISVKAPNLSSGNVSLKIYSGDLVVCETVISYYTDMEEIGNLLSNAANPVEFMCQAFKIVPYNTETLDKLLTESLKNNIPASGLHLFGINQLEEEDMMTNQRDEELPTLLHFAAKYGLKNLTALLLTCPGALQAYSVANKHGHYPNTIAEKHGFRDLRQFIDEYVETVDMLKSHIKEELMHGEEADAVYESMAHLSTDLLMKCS
# FLAG-BCAP-FL (human) [2] = target: T2, FLAG-BCAP-FL (human) (UniProt Q6ZUJ8); test: co-IP; HEK 293T cells transfected 24 h, lysate precipitated with anti-FLAG M2 beads 2 h at 4 °C, Western blot for the tags; with or without co-expressed Syk, Lyn or PLCγ2
# T2 sequence: B2 chain
# MyD88-FLAG = MyD88-FLAG (UniProt Q99836); test: as above
# FLAG-SARM = target: T3, FLAG-SARM (UniProt Q6SZW1); test: as above
# T3 sequence: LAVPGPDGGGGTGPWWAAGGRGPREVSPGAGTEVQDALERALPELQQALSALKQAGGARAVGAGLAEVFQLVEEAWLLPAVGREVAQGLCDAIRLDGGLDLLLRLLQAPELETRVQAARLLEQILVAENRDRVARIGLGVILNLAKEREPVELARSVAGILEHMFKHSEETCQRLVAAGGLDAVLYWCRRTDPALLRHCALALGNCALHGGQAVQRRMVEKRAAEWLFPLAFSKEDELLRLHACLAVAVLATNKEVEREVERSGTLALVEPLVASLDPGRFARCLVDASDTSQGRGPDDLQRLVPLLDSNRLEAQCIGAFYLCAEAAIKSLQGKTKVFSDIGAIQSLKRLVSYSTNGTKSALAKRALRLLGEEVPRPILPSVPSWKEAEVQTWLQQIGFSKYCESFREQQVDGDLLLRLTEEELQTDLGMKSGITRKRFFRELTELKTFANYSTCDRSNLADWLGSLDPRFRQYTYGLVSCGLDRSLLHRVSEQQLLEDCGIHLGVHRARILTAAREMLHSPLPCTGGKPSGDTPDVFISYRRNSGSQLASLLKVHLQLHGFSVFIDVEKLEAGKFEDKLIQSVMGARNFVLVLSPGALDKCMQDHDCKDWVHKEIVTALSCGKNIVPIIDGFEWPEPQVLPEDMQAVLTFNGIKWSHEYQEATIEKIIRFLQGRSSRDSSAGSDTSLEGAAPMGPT
# TIRAP-FLAG (human) = TIRAP-FLAG (human) (UniProt P58753); test: as above
# FLAG-BCAP-FL (human) [3] = target: T2, FLAG-BCAP-FL (human); test: as above; remark: listed apart in the source
# [4] = target: MAL/TIRAP (co-immunoprecipitation of supplemental Fig. 3) (human) (UniProt P58753); test: co-IP; co-immunoprecipitation of BCAP mutants and MAL/TIRAP (supplemental Fig. 3); methods not shown
# [5] = target: N-terminal domain of human BCAP comprising residues 7–142 (human) (UniProt Q6ZUJ8); test: AUC; sedimentation velocity, Beckman XL-A, 0.3 to 1 mg/ml, 30,000–40,000 rpm, c(S) and c(M) analysis with SEDFIT; both purified
# [6] = target: N-terminal domain of human BCAP comprising residues 7–142 (human) (UniProt Q6ZUJ8); test: SEC-MALS; Superdex 200 Increase 10/300, 50 μl injected; 4, 2 and 0.8 mg/ml for the TIR, BCAP330 and BCAPL; both purified
molecule,measurement,setting,value
"MAL/TIRAP S180L, full-length construct (yeast two-hybrid prey) (from UniProt P58753 1-221)",binding,[1],binds
TIR domain of TLR4 (residues 671–820) (from UniProt O00206 671-820) (domain or fragment),binding,[1],binds
Myc-TRAM (from UniProt Q86XR7 1-235),binding,FLAG-BCAP-FL (human) [2],no binding
Myc-MyD88-WT (from UniProt Q99836 1-296),binding,FLAG-BCAP-FL (human) [2],binds
TIR domain of TLR2 (residues 636–784) (from UniProt O60603 636-784) (domain or fragment),binding,[1],binds
"MAL/TIRAP, full-length construct (yeast two-hybrid prey) (from UniProt P58753 1-221)",binding,[1],binds
"MAL/TIRAP D96N, full-length construct (yeast two-hybrid prey) (from UniProt P58753 1-221)",binding,[1],binds
B1,binding,MyD88-FLAG,binds
same,binding,FLAG-SARM,no binding
same,binding,TIRAP-FLAG (human),binds
same,binding,FLAG-BCAP-FL (human) [3],binds
B2,binding,[4],binds
B3,binding,[4],binds
B4,binding,[4],binds
B5,binding,[4],binds
B6,binding,FLAG-SARM,binds
B7,binding,[5],no binding (tested: 0.3 to 1 mg/ml)
same,binding,[6],no binding (tested: 4 mg/ml)
